Read counts are not given, so values of variants with three or more changes are uncertain.
B1: LINE1-full (parent)
chain: UACGUAGGUGGUUUUCCCCUGAUAGUGCUAAGGGGGCCUGGAAGUUUGGACUGGGCAGAGCUCAACACAGCGUGGCAAAGUGGCUGUGGCUAGACUGCCUCUCUGGAUUCCUCGUCACUCAGCAGGGCAUCUCUGAGAGAAAUGCC

Variants of: B1
Test: self-cleavage, relative activity (ratio to wild type); higher = more cleavage; in vitro, sequencing; the parent is a self-cleaving ribozyme

| Variant | self-cleavage |
| --- | --- |
| UACGUAGGUGGUUUUCCCCUGAUAGUGCUAAGGGAGCCUGGAAGUUUGGACUGGGCAGAGCCCAACACAGCGUGGCAAAGUGGCUGUGGCUAGUCUGCCUCCCUGGUUCCCUCGUCACUCGGCAGGGCAUCUCUGAGAGAAAUGCC [G35A U62C A94U U102C A107U U109C A121G] | 0 |
| UACGUAGGUGGUUUUCCCCUGAUAGUGCUAAGGGAGCCUGGAAGUUUGGACUGGGCAGAGCUCAACACAGCGUGGCUGAGUGGCUGUGGCUAGACUGCCUCUCUGGAUUCUUCGUCACUCAGCAGGGCAUCCCUGAGAGAAAUGCC [G35A A77U A78G C111U U132C] | 0.29 |
| UACGUAGGUGGUUUUCCCCUGAUAGUGCUAAGGGAGCCUGGAAGUCUGGACUGGGCAGAGCUCUACACAGCGUGGCAAAGCGGCUGUGGCUAGACUGCCUCUCCGGAUUCCUCGUCACUCAGCAGGGCAUCUCUGAGAGAAAUACC [G35A U46C A64U U81C U104C G144A] | 0.28 |
| UACGUAGGUGGUUUUCCCCUGAUAGUGCUAAGGGAGCCUGGAAGUUUGGACUGGGCAGAGCUCAACACAGCGUGGCGAAGUAGCUGUGGCUAGACUGCCUCUCUGGAUUCCUCGUCACUCAGCGGGGCAUCUCUGAGAGAAAUGCC [G35A A77G G82A A124G] | 0.96 |
| UACGUAGGUGGUUUUCCCCUGAUAGUGCUAAGGGAGCCUGGGAGUUUGGACUGGGCAGAUCUCAACACAGCGUGGCAAGGUGGCUGUGGCUAGACUGCCUCUCUGGAUUCCUCGUCACUCAGCAGGGCAUCUCUGAGAGAUAUGCC [G35A A42G G60U A79G A141U] | 0.06 |
| UACGUAGGUGGUUUUCCCCUGAUAGUGCUAAGGGAGCCUGGAAAUUUGGACUGGGCAGAGCUCAACACAGCGUGGCAAAGGGGCUGUGGCUAGACUGCCUCUCCGGAUUCCUCGUCACUCAGCAGGGCAUCUCUGAGAGAAAUGCC [G35A G44A U81G U104C] | 1.23 |
| UACGUAGGUGGUUUUCCCCUGAUAGUGCUAAGGGAGCCUGGAAGUUUGGACUGGGCAUAGCUCAACACAGCGUGGCAAGGUGGCUGUGGCUAGACUGCCUCUCUGGAUUCCUCGUCACUCAGCAGGGCAUCUCUGAGAGAAAUGCC [G35A G58U A79G] | 0.01 |
| UACGUAGGUGGUUUUCCCCUGAUAGUGCUAAGGUGGCCUGGAAGUUUGGACUGGGCAGAGCUCAACACAGCGUGGCAAAGUGGCUGUGGCCAGACUGCCUCUCUGGAUUCCUCGUCACUCAGCAGGGCAUCUCUGAGAGAAUUGCC [G34U U91C A142U] | 0.61 |
| UACGUAGGUGGUUUUCCCCUGAUAGUGCUAAGGUGGCCUGGAAGUUCGGACUGGGCAGAGCUCAACACAGCGUGGCAAAGUGGCUGUGGCUAGACUGCCUCUCUGGAUUCCUCGUCACUCGGCAGGGCAUCUCUGAGAGAAGUGCC [G34U U47C A121G A142G] | 1.67 |
| UACGUAGGUGGUUUUCCCCUGAUAGUGCUAAGGGACCCUGGAAGUUUGGACUGGGCAGAGCUCAACACAGCGUGGCAAAGUGGCUGUGGCUAGACUGCCUCUCUGGAUUCCACGUCACUCAGCAGGGCAUCUCUGAGAGAAAUGCC [G35A G36C U112A] | 0.89 |
| UACGUAGGUGGUUUUCCCCUGAUAGUGCUAAGGUGGCCUGGAAGUUUGGACUGGGCAGAGCUCAACACAGCGUGGCAAAGUGGCUGUGGCUAGACUGCCUCUCUGGAUUCCUCGUCACUCAGCGGGGCGUCUCUGAGAGAAAUGCC [G34U A124G A129G] | 1 |
| UACGUAGGUGGUUUUCCCCUGAUAGUGCUAAGGGAGCCUGGAAGUUUGGACUGGGCAGAGCUCAACACAGCGUGGCAAAGUGGCUGUGGCUUGACUGCCUCUCUGGGUUCCUCGUCACUCAGCAGGGCAUCUCUGAGAGAAAUGCC [G35A A92U A107G] | 0.15 |
| UACGUAGGUGGUUUUCCCCUGAUAGUGCUAAGGUGGCCUGGAAGUUUGGACUGGGCAGAGCACAACACAGCGUGGCAAAGUGGCUGUGGCUAGACUGCCUCUCUGGAUUCCUCGCCACUCAGCAGGGCAUCUCUGAGAGAAAUGCC [G34U U62A U115C] | 0.02 |
| UACGUAGGUGGUUUUCCCCUGAUAGUGCUAAGGGAGCCUGGAAGUUUGGACUGGGCUGAGCCCAACACAGCGUGGCAAAGUGGCUGUGGCUAGACUGCCUCUCUGGAUUCCUCGUCACACAGCAGGGCAUCUCUGAGAGGAAAGCC [G35A A57U U62C U119A A140G U143A] | 0.03 |
| UACGUAGGUGGUUUUCCCCUGAUAGUGCUAAGGGAGCCUGGUAGUUUGGACUGGGCUGAGCUCAACACAGCGUGGCAAGGUGGCUGUGGCUAGACUGCCUCUCUGGAUUCCUCGUCACUCAGCAGGGCAUCUCUGAGAGAAAUGCC [G35A A42U A57U A79G] | 0.02 |
| UACGUAGGUGGUUUUCCCCUGAUAGUGCUAAGGUGGCCUGGAAGUUUGGACUGGGCAGAGCACAACACAGCGUGGCAAAGUGGCUGUGGCUAGACUGCCUCUCUGGAUUCCACGUCACUCAGCAGGGCAUCCCUGAGAGAAAUGCC [G34U U62A U112A U132C] | 0.03 |
| UACGUAGGUGGUUUUCCCCUGAUAGUGCUAAGGGAGCCUGGAAGUUUGGACUGGGCAGAGCUCAACACAGCGUGGCAAAGUGGCAGAGGCUAGACUGCCUCUCUGGAUUCCUCGUCACUCAGCAGGGCAUCUCUGAGAGAAAUGCC [G35A U85A U87A] | 0.06 |
| UACGUAGGUGGUUUUCCCCUGAUAGUGCUAAGGGAGCCUGGAAGUUUGGACUGGGCAGAGCUCAACACAGCGUGGCAAAGUGGCUGUGGCUAGACUGCCUCUCUGGAUUCCUCGUCACUCAGCAGGGCAUCUCUGAGAGAAUUGCG [G35A A142U C146G] | 1.43 |
| UACGUAGGUGGUUUUCCCCUGAUAGUGCUAAGGGAGCCUGGAAGUUUGGACGGGGCAGAGCUCAACACAGCGUGGCAAAGCGGCUGUGGCUAGACUGCCUCUCUGGAUUCCUCGUCACUCAGCAGGGCAUCUCUGAGAGAAAUGCC [G35A U52G U81C] | 1.46 |
| UACGUAGGUGGUUUUCCCCUGAUAGUGCUAAGGGAGCCAGGAAGUUUGGACUGGGCAGAGCUCAACGCAGCGUGGCAAAGUGGCUGUGGCUAGACUGCCUCUCUGGAUUCCUCGUCACUCAGCAGGGCAUCUCUGAGAGAAAUGCC [G35A U39A A67G] | 0.41 |
